34 variants from the RNAGym collection of RNA variant scans (doi:10.1093/nar/gkz1192) can be followed below.

B1: CPEB3 Ribozyme (parent)
chain: UAACAGGGGGCCACAGCAGAAGCGUUCACGUCGCAGCCCCUGUCAGAUUCUGGUGAAUCUGCGAAUUCUGCUGUAUAUCUC

The source gives no read counts; variants with many changes may rest on few reads.

Variants of B1 are the subject of this series. The series is described as follows: self-cleavage, relative activity (ratio to wild type); higher = more cleavage; in vitro, sequencing. An outline of the steps: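 Relative activity compares each variant's cleaved/total read fraction with that of the unmutated ribozyme. To get these fractions, barcoded CPEB3 ribozyme libraries from rounds of error-prone PCR were transcribed with T7 RNA polymerase for 5 hours at 37°C and then given 15 min of DNase I treatment before EDTA was added. The RNAs were reverse transcribed with template switching and sequenced on Illumina, and DNA sequencing linked barcodes to variants. A minimum of 5 reads applied, and three batches were averaged.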
For the variant UAACAGGGGGCCACGGCAGAAGCGCUCACGUCGCAGCCCCUGUCAGUUUCUGGUGAAUCUGCGAAUUCUGCUGUGUAUCUC [A15G U25C A47U A75G], the self-cleavage was 0.33.
The figure for UAACAGGGGGCCACGGCAGAAGCGCUCACGUCGCAGCCCCUGUCAGAUUCUGGUGAAUCCGUGAAUUCUGCUGUAUAUCUC [A15G U25C U60C C62U] is 0.19.
With UAACAGGGGGCCACGGCAGAAGCGCUCACGUCGCAGCCCCUAUCAGAUACUGGUGAAUCCGCGAAUUCUGCUGUAUAUCUC [A15G U25C G42A U49A U60C] the figure was 0.1; with UAACAGGGGGCCACGGCAGAAGCGCUCACGUCGCAGCCCCUGUCAGAUUCUGGUGAAUCUGCGUAUUCUGCUGUAUAUCUC [A15G U25C A64U], 0.23; with UAACAGGGGGCCACGGCAGAAGCGGACACGUCGCAGCCCCUGUCAGACUCUGGUGAAUCUGCGAAUUCUGCUGUAUAUCUC [A15G U25G U26A U48C], 0.06.
With UAACAGGGGGCCACGGCAGAAGCGCUAACGCCGCAGCCCCUGUAAGAUUCUGGUGAAUCUGCGAAUUCUGCAGUAUAUCUC [A15G U25C C27A U31C C44A U72A] the figure was 0.11; with UAACAGGGGGCCACGGCAGAAGCGAUCACGACGCAGCUCCUGUCAGAUUCUGGUGAAUCCGCGAAUUCUGCUGUAUAUCUC [A15G U25A U31A C38U U60C], 0.07; with UAACAGGGGGCCACGGCAGAAGCGCCCACGUCGCAGCCCCUGUCAGAUUCAGGUGAAUCUGCGAUUUCUGCUGUAUAUCUC [A15G U25C U26C U51A A65U], 0.4.
For the variant UAACAGGGGGCCACGGCAGAAGCGCUCACGCCGCAGCCCCUGUCAGAUUCGGGUGAGUCUGCGAAUUCUGCUGUAUAACUC [A15G U25C U31C U51G A57G U78A], the self-cleavage is 0.11.
The figure for UAACAGGGGGCCACGGCAGAAGCGACCACGUCGCAGCCCCUGUCAGAUUCUGGUGAAUCUGCGAAUUCUGCCGUAUAUCUC [A15G U25A U26C U72C] is 0.12.
The figure for UAACAGGGGGCCACGGCAGAAGCGAUCACGUCGCAGCCCCCGUCGGAUUCUGGUGAAUCAGCGAAUUCUGCUGUAUAUCUC [A15G U25A U41C A45G U60A] is 0.08; for UAACAGGGGGCCACGGCAGAAGCGCUCACGUCGCAGCCCCUGUCAGAUUCUGGCGAAUCUGCGAAUUCAGCUGUAUAUCUC [A15G U25C U54C U69A] it is 0.1; for UAACAGGGGGCCACGGCAGAAGCGGUCGCGUCGCAGCCCCUGACAGAUUCUGGUGAAUCUGCGAAUUCUGCUGUAUAUCCC [A15G U25G A28G U43A U80C] it is 0.14.
With UAACAGGGGGCCACGGCAGAAGCGCUCACGUCGCAGCCCCUGUCAGAUUCUGGUGAAUCUGCGAAUUCAGCUGUAUAUCUC [A15G U25C U69A] the figure was 0.24.
UAACAGGGGGCCACGGCAGAAGCGCUCACGUCGCAGCCCCUGUCAGAUACUGGUGAAUCUGCGAAUUCUGCUGUAUAUCUG [A15G U25C U49A C81G]: the self-cleavage amounted to 0.07.
The figure for UAACAGGGGGCCACGGCAGAAGCGUUCACGUCGCAGCCCCUGUCAGAUUCUGGUGAAUCUGCGAAUUCUCUUGUAUAUCUC [A15G G70C C71U] is 0.34; for UAACAGGGGGCCACGGCAGAAGCGCUCACGUCGCAGCCCCAGUCAGAUUCUGGUGAGUCUGCGAAUUCUGCUGUAUAUCUC [A15G U25C U41A A57G] it is 0.16; for UAACAGGGGGCCACGGCAGAAGCGAUCACGUCGCAGCCCCUGUCAGAUUCUGGUGAAUCUGCGAAUUCUGCAGUAUAACUC [A15G U25A U72A U78A] it is 0.2.
The figure for UAACAGGGGGCCACGGCAGAAGCGCUCACUUCGCAGCCCCUGUCAGAUUCUGGUGAAUCUGCGAAUUCUGCUGUAUAUCUC [A15G U25C G30U] is 0.08.
With UAACAGGGGGCCACGGCAGAAGCGCUCACGUCGCAGCCCCUGUCAGAUUCAGGCGAUUCUGCGAAUUCUGCUGUAUAUCUC [A15G U25C U51A U54C A57U], the self-cleavage worked out at 0.09.
The figure for UAACAGGGGGCCACGGCAGAAGCGCUCACGUCGCAGCCCCUGUCAGAUUCUGGUGAGUCUGCGAAUUGAGCUGUAUAUCUU [A15G U25C A57G C68G U69A C81U] is 0.02.
The figure for UAACAGGGGGCCACGGCAGAAGCGAUCACGUCGCAGCCCCUGUCAGAUUCCGGUGAAUCUGCGGAUUCUGCUGUAUAUCCC [A15G U25A U51C A64G U80C] is 0.05.
The figure for UAACAGGGGGCCACGGCAGAAGCGUACACGUCGCAGCCCCCGUCAGAUUCUGGUGAAUCUGCGAAUUCAGCUGUAUGUCUC [A15G U26A U41C U69A A77G] is 0.13; for UAACAGGGGGCCACGGCAGAAGCGUACACGUCGCAGCCCCUGUCAGAUUCUGGUGAAUCUGCAAAUUCUGCUGUAUAUCUC [A15G U26A G63A] it is 0.38.
In the case of UAACAGGGGGCCACGGCAGAAGCGUACACGUCGCAGCCCCCGUCAGACUCUGGUGAAUCUGCGAAUUCUGCUGUAUAUCUC [A15G U26A U41C U48C], the self-cleavage is 0.29.
With UAACAGGGGGCCACGGCAGAAGCGAUCACGACGCUGCCCCUGUCAGAUUCUGGUGAAUCUGCGAGUUCUGCUGCAUAUCUC [A15G U25A U31A A35U A65G U74C] the figure was 0.07; with UAACAGGGGGCCACGGCAGAAGCGCUCGCGUCGCAGCCCCCGUCAGAUUCUGGUGAAUCUGCGAAUUCUGCUGUAUAUCUC [A15G U25C A28G U41C], 0.16; with UAACAGGGGGCCACGGCAGAAGCGAUCACGCCGCAGCCCCUAUCAGAUUCUGGCGAAUCUGCGAUCUCUGCUGUAUAUCUC [A15G U25A U31C G42A U54C A65U U66C], 0.07.
The figure for UAACAGGGGGCCACGGCAGAAGCGGUCACGUCGCAGCCCCUGUCAGAUUCUGGUGAAUCCGCGUAUUCUGCUGUAUAUCCC [A15G U25G U60C A64U U80C] is 0.12; for UAACAGGGGGCCACGGCAGAAGCGAUCACGUCGCGGCCCCUGUCAGAUUCUGGUGGAUCCGCGAAUUCUGCUGUAUAUCUC [A15G U25A A35G A56G U60C] it is 0.06; for UAACAGGGGGCCACGGCAGAAGCGCCCACGUCGCAGCCCCUGUCAGAUUCUCGUGAAUCUGCGAAUCCUGCUGUAUAUCUC [A15G U25C U26C G52C U67C] it is 0.12.
With UAACAGGGGGCCACGGCAGAAGCGCUCACGACGCAGCCCCUGUCGGGUUCUGGUGAAUCUGCGAAUUCUGCUGUAUGUCUC [A15G U25C U31A A45G A47G A77G] the figure was 0.16; with UAACAGGGGGCCACGGCAGAAGCGUUCACGUCGCAGCCCCUGUCAGAUUCUCGGGAGUCUGCGAACUAUGCUGUAUAUCUC [A15G G52C U54G A57G U66C C68A], 0.07.
As for UAACAGGGGGCCACGGCAGAAGCGUUCACGUCGCAGCCCCUGUCAGAUUCUGAGGAAUCUGCGAAUUCUGCUGUAUAUCUC [A15G G53A U54G], the self-cleavage came to 0.95.
